Some of the results follow.
Assays:
Test in all cases: glycan array binding signal (z-score within array); higher = stronger binding
Details in all cases: glycan notation: IUPAC condensed, linker removed
[1] = biological target: GlcNAc(b1-4)GlcNAc(b1-4)GlcNAc(b1-4)GlcNAc(b1-4)GlcNAc(b1-4)GlcNAc
Summary of the method: (§1)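 The binding signal is a Z-score computed within each array. Data were drawn from 3228 arrays in the Consortium for Functional Glycomics database, restricted to those with a known protein sequence. Scores were averaged over arrays of the same protein sequence at different concentrations or buffers, and over linkers, and negative values can be taken as non-binding.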

[2] = biological target: GlcNAc(b1-4)[GlcNAc(b1-6)]GalNAc
Summary of the method: as §1

[3] = biological target: GlcNAc(b1-6)Gal(b1-4)GlcNAc
Summary of the method: as §1

GlcNAc(b1-6)GalNAc = biological target: GlcNAc(b1-6)GalNAc
Summary of the method: as §1

[4] = biological target: GlcNAc6S(b1-3)Gal(b1-4)GlcNAc
Summary of the method: as §1

Kdn(a2-3)Gal(b1-3)GalNAc = biological target: Kdn(a2-3)Gal(b1-3)GalNAc
Summary of the method: as §1

Kdn(a2-3)Gal(b1-3)GlcNAc = biological target: Kdn(a2-3)Gal(b1-3)GlcNAc
Summary of the method: as §1

Kdn(a2-3)Gal(b1-4)Glc = biological target: Kdn(a2-3)Gal(b1-4)Glc
Summary of the method: as §1

Kdn(a2-3)Gal(b1-4)GlcNAc = biological target: Kdn(a2-3)Gal(b1-4)GlcNAc
Summary of the method: as §1

[5] = biological target: Kdn(a2-3)Gal(b1-4)[Fuc(a1-3)]GlcNAc
Summary of the method: as §1

Kdn(a2-6)Gal(b1-4)GlcNAc = biological target: Kdn(a2-6)Gal(b1-4)GlcNAc
Summary of the method: as §1

[6] = biological target: Man(a1-2)Man(a1-2)Man(a1-3)Man
Summary of the method: as §1

[7] = biological target: Man(a1-2)Man(a1-2)Man(a1-6)[Man(a1-3)]Man
Summary of the method: as §1

Man(a1-2)Man(a1-3)Man = biological target: Man(a1-2)Man(a1-3)Man
Summary of the method: as §1

[8] = biological target: Man(a1-2)Man(a1-3)[Man(a1-2)Man(a1-6)]Man
Summary of the method: as §1

[9] = biological target: Man(a1-2)Man(a1-3)[Man(a1-2)Man(a1-6)]Man(a1-6)[Man(a1-2)Man(a1-2)Man(a1-3)]Man
Summary of the method: as §1

[10] = biological target: Man(a1-2)Man(a1-3)[Man(a1-2)Man(a1-6)]Man(a1-6)[Man(a1-2)Man(a1-2)Man(a1-3)]Man(b1-4)GlcNAc(b1-4)GlcNAc
Summary of the method: as §1

[11] = biological target: Man(a1-2)Man(a1-3)[Man(a1-6)]Man(a1-6)[Man(a1-2)Man(a1-3)]Man(b1-4)GlcNAc(b1-4)GlcNAc
Summary of the method: as §1

[12] = biological target: Man(a1-2)Man(a1-6)[Man(a1-3)]Man(a1-6)[Man(a1-2)Man(a1-2)Man(a1-3)]Man
Summary of the method: as §1

[13] = biological target: Man(a1-2)Man(a1-6)[Man(a1-3)]Man(a1-6)[Man(a1-2)Man(a1-2)Man(a1-3)]Man(b1-4)GlcNAc(b1-4)GlcNAc
Summary of the method: as §1

Man(a1-3)[Man(a1-6)]Man = biological target: Man(a1-3)[Man(a1-6)]Man
Summary of the method: as §1

[14] = biological target: Man(a1-3)[Man(a1-6)]Man(a1-6)[Man(a1-2)Man(a1-3)]Man(b1-4)GlcNAc(b1-4)GlcNAc
Summary of the method: as §1

[15] = biological target: Man(a1-3)[Man(a1-6)]Man(a1-6)[Man(a1-3)]Man
Summary of the method: as §1

[16] = biological target: Man(a1-3)[Man(a1-6)]Man(a1-6)[Man(a1-3)]Man(b1-4)GlcNAc(b1-4)GlcNAc
Summary of the method: as §1

[17] = biological target: Man(a1-3)[Man(a1-6)]Man(b1-4)GlcNAc(b1-4)GlcNAc
Summary of the method: as §1

[18] = biological target: Man(a1-3)[Man(a1-6)]Man(b1-4)GlcNAc(b1-4)[Fuc(a1-6)]GlcNAc
Summary of the method: as §1

Man(a1-6)Man = biological target: Man(a1-6)Man
Summary of the method: as §1

Man(b1-4)GlcNAc = biological target: Man(b1-4)GlcNAc
Summary of the method: as §1

MurNAc(b1-4)GlcNAc = biological target: MurNAc(b1-4)GlcNAc
Summary of the method: as §1

Neu5Ac(a2-3)Gal = biological target: Neu5Ac(a2-3)Gal
Summary of the method: as §1

[19] = biological target: Neu5Ac(a2-3)Gal(b1-3)GalNAc
Summary of the method: as §1

[20] = biological target: Neu5Ac(a2-3)Gal(b1-3)GalNAc(b1-3)Gal(a1-4)Gal(b1-4)Glc
Summary of the method: as §1

[21] = biological target: Neu5Ac(a2-3)Gal(b1-3)GalNAc(b1-4)Gal(b1-4)Glc
Summary of the method: as §1

[22] = biological target: Neu5Ac(a2-3)Gal(b1-3)GalNAc(b1-4)[Neu5Ac(a2-3)]Gal(b1-4)Glc
Summary of the method: as §1

[23] = biological target: Neu5Ac(a2-3)Gal(b1-3)GalNAc(b1-4)[Neu5Ac(a2-8)Neu5Ac(a2-3)]Gal(b1-4)Glc
Summary of the method: as §1

[24] = biological target: Neu5Ac(a2-3)Gal(b1-3)GalNAc6S
Summary of the method: as §1

[25] = biological target: Neu5Ac(a2-3)Gal(b1-3)GlcNAc
Summary of the method: as §1

[26] = biological target: Neu5Ac(a2-3)Gal(b1-3)GlcNAc(b1-2)Man
Summary of the method: as §1

[27] = biological target: Neu5Ac(a2-3)Gal(b1-3)GlcNAc(b1-2)Man(a1-3)[GlcNAc(b1-4)][Neu5Ac(a2-3)Gal(b1-3)GlcNAc(b1-2)Man(a1-6)]Man(b1-4)GlcNAc(b1-4)GlcNAc
Summary of the method: as §1

[28] = biological target: Neu5Ac(a2-3)Gal(b1-3)GlcNAc(b1-2)Man(a1-3)[Neu5Ac(a2-3)Gal(b1-3)GlcNAc(b1-2)Man(a1-6)]Man(b1-4)GlcNAc(b1-4)GlcNAc
Summary of the method: as §1

[29] = biological target: Neu5Ac(a2-3)Gal(b1-3)GlcNAc(b1-2)[Neu5Ac(a2-3)Gal(b1-3)GlcNAc(b1-4)]Man(a1-6)[Neu5Ac(a2-3)Gal(b1-3)GlcNAc(b1-2)Man(a1-3)]Man(b1-4)GlcNAc(b1-4)GlcNAc
Summary of the method: as §1

[30] = biological target: Neu5Ac(a2-3)Gal(b1-3)GlcNAc(b1-3)Gal(b1-3)GlcNAc
Summary of the method: as §1

[31] = biological target: Neu5Ac(a2-3)Gal(b1-3)GlcNAc(b1-3)Gal(b1-4)GlcNAc
Summary of the method: as §1

[32] = biological target: Neu5Ac(a2-3)Gal(b1-3)GlcNAc(b1-3)GalNAc
Summary of the method: as §1

[33] = biological target: Neu5Ac(a2-3)Gal(b1-3)GlcNAc(b1-6)GalNAc
Summary of the method: as §1

B1: Pwp2 (Candida glabrata) (protein)
chain: MGSSHHHHHHSSGLVPRGSHMASKNPVELNNVCTFPNDYGRIPGFTVLVGRLGLLISASDYKELLRYPGAFLIATQDTMTTSPNFELTGFPFFTGLYGLTVFPLDLLVELRGYFVPPNSGQYTFTLSDSDDAAIIFLGNPSAFPCGDLQNWPKPSEEDITVTDHLFPSRTLYLIEGVAYPMRIAYYNGIGAGRLNAAFIDPSGTRHTNWEGYIWQYDPCSTCTYS
glycan array binding signal (z-score) [1]: 1.65 | glycan array binding signal (z-score) [2]: -0.585 | glycan array binding signal (z-score) [3]: -0.113 | glycan array binding signal (z-score) (GlcNAc(b1-6)GalNAc): 0.84 | glycan array binding signal (z-score) [4]: -0.468 | glycan array binding signal (z-score) (Kdn(a2-3)Gal(b1-3)GalNAc): 0.472 | glycan array binding signal (z-score) (Kdn(a2-3)Gal(b1-3)GlcNAc): -0.284 | glycan array binding signal (z-score) (Kdn(a2-3)Gal(b1-4)Glc): 2.39 | glycan array binding signal (z-score) (Kdn(a2-3)Gal(b1-4)GlcNAc): 0.176 | glycan array binding signal (z-score) [5]: 1.8 | glycan array binding signal (z-score) (Kdn(a2-6)Gal(b1-4)GlcNAc): 0.09 | glycan array binding signal (z-score) [6]: 0.082 | glycan array binding signal (z-score) [7]: 0.12 | glycan array binding signal (z-score) (Man(a1-2)Man(a1-3)Man): -0.465 | glycan array binding signal (z-score) [8]: -0.477 | glycan array binding signal (z-score) [9]: -0.722 | glycan array binding signal (z-score) [10]: 2.68 | glycan array binding signal (z-score) [11]: -0.572 | glycan array binding signal (z-score) [12]: -0.407 | glycan array binding signal (z-score) [13]: -0.467 | glycan array binding signal (z-score) (Man(a1-3)[Man(a1-6)]Man): -0.513 | glycan array binding signal (z-score) [14]: -0.412 | glycan array binding signal (z-score) [15]: 5.45 | glycan array binding signal (z-score) [16]: 0.106 | glycan array binding signal (z-score) [17]: 0.07 | glycan array binding signal (z-score) [18]: -0.046 | glycan array binding signal (z-score) (Man(a1-6)Man): -0.485 | glycan array binding signal (z-score) (Man(b1-4)GlcNAc): -0.694 | glycan array binding signal (z-score) (MurNAc(b1-4)GlcNAc): -0.475 | glycan array binding signal (z-score) (Neu5Ac(a2-3)Gal): 0.433 | glycan array binding signal (z-score) [19]: 0.274 | glycan array binding signal (z-score) [20]: -0.307 | glycan array binding signal (z-score) [21]: -0.305 | glycan array binding signal (z-score) [22]: -0.274 | glycan array binding signal (z-score) [23]: -0.08 | glycan array binding signal (z-score) [24]: -0.264 | glycan array binding signal (z-score) [25]: -0.299 | glycan array binding signal (z-score) [26]: 0.011 | glycan array binding signal (z-score) [27]: -0.326 | glycan array binding signal (z-score) [28]: 0.088 | glycan array binding signal (z-score) [29]: -0.179 | glycan array binding signal (z-score) [30]: -0.269 | glycan array binding signal (z-score) [31]: -0.444 | glycan array binding signal (z-score) [32]: -0.419 | glycan array binding signal (z-score) [33]: -0.375

Reference: the supplement of paper PMC8728848
